Sequences with one replicate were seen in a single cluster, so their values are uncertain.

The data set deals with ATP. In words: switch fluorescence ratio, 500 uM ATP over buffer (Cy3 cluster intensity, sum of 5 cycles each) (fold (ratio)); higher = stronger signal-on switching upon ATP binding; sequences stand for … in TCGTCGGCAGCGTCAGATGTGTATAAGAGACAGTTTTTTTTTTTTTTTTTTTTTTTTT…TC. Particulars: aptamer strand: ATP DNA aptamer (quencher-CACCTGGGGGAGTATTGCGGAGGAAGG + anchor), 100 nM annealed; ATP concentration: 500 uM; one replicate. An outline of the steps: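 Exposure to 500 uM ATP lasted 15 min at 22 °C before imaging, and a selection-buffer image was taken beforehand, for Cy3-labelled switching-strand clusters on a modified Illumina MiSeq flow-cell annealed to 100 nM quencher-labelled ATP aptamer. Five buffer/ATP cycles were run with NaOH stripping and re-annealing between them. The fluorescence ratio per cluster is summed target-cycle over summed buffer-cycle Cy3 intensity, averaged per switch-domain sequence. Clusters outside 100-1000 RFU were excluded.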
With TAGCGCGTTG, the switch fluorescence ratio was determined as 1. With ATGGAGGGTT, the switch fluorescence ratio stood at 1. As for GACTATGTT, the switch fluorescence ratio was determined as 0.968. On to GATTTCTTAG, for which the switch fluorescence ratio was 0.98.

Regarding GGCTACTTGG, the switch fluorescence ratio came to 1.01. On to GCATCGGGGC, for which the switch fluorescence ratio was 0.974.

Turning to TGAGCATAGA, the switch fluorescence ratio was 0.996.

Regarding TAAGTTCTTG, the switch fluorescence ratio came to 0.989. Turning to TAGGATTGTC, the switch fluorescence ratio was determined as 0.994. As to GCGATTGCTG, the switch fluorescence ratio is 0.999. CGGGCTTGAG: the switch fluorescence ratio was 0.954. Regarding GGGAATATGG, the switch fluorescence ratio is 1.04. Turning to TCAGACATAA, the switch fluorescence ratio turned out to be 0.966.

For the sequence GGACGTTGGC, the switch fluorescence ratio worked out at 0.996. With CGTGCCGAGC the figure was 1.02; with TTTTTCCCGT, 1.04; with GGTCCAGGCA, 0.992.

With GGGAAACCCC, the switch fluorescence ratio came out at 1.25. With CGGGTTGATG, the switch fluorescence ratio is 0.98. For GGCCACTAAT, the switch fluorescence ratio amounted to 0.996. For the sequence ATTTCAAATC, the switch fluorescence ratio was determined as 1.01.

For CTTTTCGGCG, the switch fluorescence ratio came out at 0.99. The result for TTCTAAGCAT reads 1.21; that for AGAAGATCCG, 0.943; that for AGTTATGTCG, 1.16. As to AGTTCCAAAC, the switch fluorescence ratio came out at 0.99.

GGGAAGTAG: the switch fluorescence ratio stood at 0.988.

On to ATGCAAAAG, for which the switch fluorescence ratio amounted to 1.06.

Turning to TAGCAGCGG, the switch fluorescence ratio is 1.03. With AACAAAGATA the figure was 1.04; with AGGTTCGGC, 1.07; with CGTTCCAGAA, 1.02. Turning to TAAGTGACAT, the switch fluorescence ratio is 0.995. GTGGCTAGGT: the switch fluorescence ratio was determined as 1.03. Turning to CAGGCCCCGC, the switch fluorescence ratio amounted to 1.01. ATCTATGCCG: the switch fluorescence ratio was 1.06. With ACCAGGCTGG the figure was 1.02; with GGGAAAATGA, 1. Take TGATGAGGTA: the switch fluorescence ratio came to 1.32. As to GTAAACCGAC, the switch fluorescence ratio amounted to 1.11. CAGTCCAAGT: the switch fluorescence ratio was 0.951. As to TGGGAACATT, the switch fluorescence ratio came out at 1.01. Turning to ATATTTCTAC, the switch fluorescence ratio came to 1.04.

As to TATGAGGCG, the switch fluorescence ratio worked out at 0.947. Take ACAGGATTCT: the switch fluorescence ratio was 0.995. Turning to ACGATAGAGT, the switch fluorescence ratio stood at 1.04.

Turning to CCCAAATCC, the switch fluorescence ratio came out at 1.09. As to AGGCCCTATA, the switch fluorescence ratio worked out at 0.974. For TCCTTTTACG, the switch fluorescence ratio was found to be 1.03. With AGTTTACTTG, the switch fluorescence ratio came out at 1.01. For the sequence CATAGTTCAT, the switch fluorescence ratio turned out to be 1.23. The result for CTGGGGATC reads 1.06. The result for GCCTAGTTAT reads 1.01; that for GGAGTCGTTC, 0.994; that for GTTGGTTG, 0.985.

For the sequence CAATTGGGT, the switch fluorescence ratio was found to be 1.01. With TGTTTAGAA the figure was 0.945. Turning to TGGGGTGAAA, the switch fluorescence ratio was determined as 0.973. For TTCAGTAGTT, the switch fluorescence ratio was 1.04.

With TATACTCGGA, the switch fluorescence ratio was determined as 1.03. As to GTGGCAAATG, the switch fluorescence ratio is 1. For GCTTAGTAGT, the switch fluorescence ratio worked out at 0.971. Regarding CAGGGCCGTG, the switch fluorescence ratio stood at 1.02. For the sequence AGTAGCTGAG, the switch fluorescence ratio came out at 1.02. GCAAGTAAAG: the switch fluorescence ratio came out at 0.992. Turning to TTGACATCAT, the switch fluorescence ratio turned out to be 1.03.

As to GATGCCCGGG, the switch fluorescence ratio was 1.03. The result for CGGCGTCTAG reads 0.973; that for TCAATCCGGT, 1.45; that for GTACCTCGGG, 0.976.

Regarding CGTTTAGACT, the switch fluorescence ratio is 1.01.

TAATCGGGAC: the switch fluorescence ratio worked out at 0.993.

Regarding GGTTCTGTCT, the switch fluorescence ratio was 0.994. The result for AATTAACCT reads 2.06; that for TACCGGGCAG, 1. As for CCCCTTCGTG, the switch fluorescence ratio amounted to 1.82. With CGGCGAGGGA, the switch fluorescence ratio is 1.03. With TACGCAATT the figure was 2.28; with GCATCAGCCC, 1.01.

TCTCAAACAT: the switch fluorescence ratio stood at 1.07. Take TCTGATATGG: the switch fluorescence ratio came to 0.987.

As to AGCTTTACAA, the switch fluorescence ratio came to 1.01. As to CGCATTAGAT, the switch fluorescence ratio worked out at 1.08.

In the case of ACTCAATATG, the switch fluorescence ratio was 1.06. For the sequence GGTATTGACT, the switch fluorescence ratio was determined as 1.02. As for TCGACCTGGA, the switch fluorescence ratio was 1.09. CTAGCATTAT: the switch fluorescence ratio was 1.47. For TGGGTTATG, the switch fluorescence ratio came out at 0.991.

As to TACTTCGAGG, the switch fluorescence ratio came to 0.995. The result for TTTCGATTTC reads 0.973; that for TTTCGAC, 1.05.

For AGGTATCGAC, the switch fluorescence ratio came out at 0.965. With GTACTAGTCG the figure was 1.01; with GTAGTCTTAC, 1.07. With AAGGCTCCGC, the switch fluorescence ratio was determined as 1.4.

For GGCTTCGGAG, the switch fluorescence ratio is 0.987.

As for TCCTAATTAT, the switch fluorescence ratio came to 1.05. As to TCAACGTTAC, the switch fluorescence ratio is 1.86. Regarding GGCGATCGTA, the switch fluorescence ratio worked out at 1.02. With CCGGAGTGC the figure was 1.04; with GTACGTCGTC, 0.979; with ACACGTGCC, 1.02. For the sequence ACTTGGATTG, the switch fluorescence ratio is 1.02. Turning to AATGGCCCGG, the switch fluorescence ratio was determined as 0.997. As to CTCGGGATT, the switch fluorescence ratio came out at 1.78. With GCCGAAGATG the figure was 1.03. The result for CATGAGGCAA reads 2.08; that for GCTACGGCTA, 1.11. Take TAACGTTGAC: the switch fluorescence ratio is 1.09.

TTGACTTAAC: the switch fluorescence ratio stood at 1.05. For TATGGTTTGC, the switch fluorescence ratio was determined as 1.01.

Take TTTCTACGGT: the switch fluorescence ratio was 1.01.

Take AGCGAACCAG: the switch fluorescence ratio turned out to be 1.23. With CACAAACGGA, the switch fluorescence ratio is 1.32.

For the sequence AATATAAACT, the switch fluorescence ratio is 1.05. With CGGGCCAAGT, the switch fluorescence ratio was 1.01. TGCCTTGTCA: the switch fluorescence ratio turned out to be 0.998. With GTTGTAGGCG the figure was 1.02; with TTTAGACGAA, 0.962. For GCCAGGATCT, the switch fluorescence ratio worked out at 0.989. Consider ACTCCGTATG, for which the switch fluorescence ratio stood at 2.35.

The values above are taken from the supplement of paper PMC10126150.
